In the supplement of paper PMC4967469:
Lines with a small IC50 respond at low doses; a fit beyond the top or the lowest dose is shown as a bound at that dose. AUC, from the same fit, is the share of area under the viability curve across the 256-fold dose range; the more sensitive the line, the further below 1. For some of these results: The top dose, if marked as inferred, was derived from the fitted curves, not read from the paper. For some of these results: An entry number marks a drug with two screens in the source, which often give different values.

Experiments:
Test in all cases: Viability of human cancer cell lines after 72 h of drug (GDSC screen)
[1] = compound: CCCC(=O)OCc1ccc(OC(=O)/C=C(C)/C=C/C=C(C)/C=C/C2=C(C)CCCC2(C)C)cc1 [VNLG/124]; conditions: top dose 5.12 µM; top dose inferred
Experimental: (§1)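 Human cancer cell lines in 384-well plates, medium with 10% serum, drug for 72 h over a 256-fold dose range (nine 2-fold or five 4-fold steps up to the top dose). Adherent lines were fixed and stained with the nucleic acid dye Syto60, suspension lines read with resazurin; signal relative to control wells, capped at 0 and 100%. One two-parameter sigmoid per drug and line, fitted in a mixed model over all curves with the slope shared within a line.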

[2] = compound: O=S(=O)(O)c1ccc2cc(N=Nc3cc(S(=O)(=O)O)c4cccnc4c3O)ccc2c1 [NSC-87877]; conditions: top dose 16 µM; top dose inferred
Experimental: as §1

[3] = compound: O=C(/C=C/c1ccc(CN(CCO)CCc2c[nH]c3ccccc23)cc1)NO [LAQ824]; conditions: top dose 1.024 µM; top dose inferred
Experimental: as §1

[4] = compound: O=C(Nc1ccc(OC(F)(F)F)cc1)c1sccc1NCc1ccnc2ccccc12 [OSI-930]; conditions: top dose 10.24 µM
Experimental: as §1

[5] = compound: CC/C(=C(\c1ccccc1)c1ccc(OCCN(C)C)cc1)c1ccccc1 [Tamoxifen]; conditions: top dose 5 µM
Experimental: as §1

[6] = compound: COc1cc(N2CCC(C(N)=O)CC2)ccc1Nc1nc(N)c(Cl)c(Nc2ccccc2S(=O)(=O)C(C)C)n1 [HG-5-88-01]; conditions: top dose 10 µM; top dose inferred
Experimental: as §1

[7] = compound: Cc1ccc(NC(=O)c2ccc(CN3CCN(C)CC3)cc2)cc1Nc1nc(-c2cccnc2)cs1 [Masitinib]; conditions: top dose 20 µM
Experimental: as §1

[8] = compound: O=C(Nc1cccc(Nc2ncc(Br)c(NCCc3cnc[nH]3)n2)c1)N1CCCC1 [BX-912]; conditions: top dose 10.24 µM; top dose inferred
Experimental: as §1

[9] = compound: Cc1c(N)nc([C@H](CC(N)=O)NC[C@H](N)C(N)=O)nc1C(=O)N[C@H](C(=O)N[C@H](C)[C@@H](O)[C@H](C)C(=O)N[C@H](C(=O)NCCc1nc(-c2nc(C(=O)NCCC[S+](C)C)cs2)cs1)[C@@H](C)O)[C@@H](OC1OC(CO)C(O)C(O)C1OC1OC(CO)C(O)C(OC(N)=O)C1O)c1cnc[nH]1 [Bleomycin]
Experimental: as §1

[10] = compound: CN(NC(=O)CC(=O)NN(C)C(=S)c1ccccc1)C(=S)c1ccccc1 [Elesclomol]; conditions: top dose 0.2 µM; top dose inferred
Experimental: as §1

[11] = top dose 50 µM, screen: GDSC drug entry 1378, top dose inferred
[12] = top dose 64 µM, screen: GDSC drug entry 190

With “NCI-H1651 (lung adenocarcinoma, adherent)” the AUC [1] was 0.987, the IC50 [1] was over 5.12 µM and the AUC [2] was 0.985. It also gave an IC50 [2] of over 16 µM, an AUC [3] of 0.438 and an IC50 [3] of 0.0428 µM. The AUC [4] was 0.961, the IC50 [4] was over 10.2 µM and the AUC [5] was 0.985. For the same cell line, the IC50 [5] was over 5 µM, the AUC [6] was 0.985 and the IC50 [6] was over 10 µM. The AUC [7] was 0.979, the IC50 [7] was over 20 µM and the AUC [8] was 0.987. The IC50 [8] was over 10.2 µM, the AUC [9, 11] was 0.598 and the IC50 [9, 11] was 5.94 µM. The AUC [9, 12] was 0.269, the IC50 [9, 12] was 0.826 µM and the AUC [10] was 0.776. For the same cell line, the IC50 [10] was 0.0858 µM.
Cell Line “NCI-H1694 (small cell lung carcinoma, suspension)” has an AUC [1] of 0.982, an IC50 [1] of over 5.12 µM and an AUC [2] of 0.979. The IC50 [2] was over 16 µM, the AUC [3] was 0.498 and the IC50 [3] was 0.0631 µM. It also gave an AUC [4] of 0.953, an IC50 [4] of over 10.2 µM and an AUC [5] of 0.987. For the same cell line, the IC50 [5] was over 5 µM, the AUC [6] was 0.926 and the IC50 [6] was over 10 µM. For the same cell line, the AUC [7] was 0.817, the IC50 [7] was 11.1 µM and the AUC [8] was 0.728. The IC50 [8] was 2.84 µM, the AUC [9, 11] was 0.835 and the IC50 [9, 11] was 32.7 µM. The AUC [9, 12] was 0.832, the IC50 [9, 12] was 40.7 µM and the AUC [10] was 0.796. The IC50 [10] was 0.0928 µM.
Cell Line “NCI-H1755 (lung adenocarcinoma, adherent)” has an AUC [1] of 0.984, an IC50 [1] of over 5.12 µM and an AUC [2] of 0.981. For the same cell line, the IC50 [2] was over 16 µM, the AUC [3] was 0.648 and the IC50 [3] was 0.176 µM. For the same cell line, the AUC [4] was 0.917, the IC50 [4] was over 10.2 µM and the AUC [5] was 0.951. It also gave an IC50 [5] of over 5 µM, an AUC [6] of 0.893 and an IC50 [6] of over 10 µM. It also gave an AUC [7] of 0.881, an IC50 [7] of over 20 µM and an AUC [8] of 0.79. For the same cell line, the IC50 [8] was 5.39 µM, the AUC [9, 11] was 0.879 and the IC50 [9, 11] was over 50 µM. The AUC [9, 12] was 0.409, the IC50 [9, 12] was 2.16 µM and the AUC [10] was 0.497. The IC50 [10] was 0.0123 µM.
“NCI-H1770 (non-small cell lung carcinoma, suspension)” gave an AUC [1] of 0.987, an IC50 [1] of over 5.12 µM and an AUC [2] of 0.99. The IC50 [2] was over 16 µM, the AUC [3] was 0.429 and the IC50 [3] was 0.0421 µM. For the same cell line, the AUC [4] was 0.98, the IC50 [4] was over 10.2 µM and the AUC [5] was 0.989. For the same cell line, the IC50 [5] was over 5 µM, the AUC [6] was 0.879 and the IC50 [6] was 8.06 µM. It also gave an AUC [7] of 0.975, an IC50 [7] of over 20 µM and an AUC [8] of 0.903. For the same cell line, the IC50 [8] was over 10.2 µM, the AUC [9, 11] was 0.969 and the IC50 [9, 11] was over 50 µM. The AUC [9, 12] was 0.571, the IC50 [9, 12] was 6.09 µM and the AUC [10] was 0.936. For the same cell line, the IC50 [10] was over 0.2 µM.
Cell Line “NCI-H1781 (lung adenocarcinoma, adherent)” has an AUC [1] of 0.989, an IC50 [1] of over 5.12 µM and an AUC [2] of 0.989. For the same cell line, the IC50 [2] was over 16 µM, the AUC [3] was 0.832 and the IC50 [3] was 0.657 µM. The AUC [4] was 0.988, the IC50 [4] was over 10.2 µM and the AUC [5] was 0.988. It also gave an IC50 [5] of over 5 µM, an AUC [6] of 0.971 and an IC50 [6] of over 10 µM. For the same cell line, the AUC [7] was 0.983, the IC50 [7] was over 20 µM and the AUC [8] was 0.989. For the same cell line, the IC50 [8] was over 10.2 µM, the AUC [9, 11] was 0.289 and the IC50 [9, 11] was 0.794 µM. The AUC [9, 12] was 0.376, the IC50 [9, 12] was 1.83 µM and the AUC [10] was 0.635. It also gave an IC50 [10] of 0.0295 µM.
“NCI-H1792 (lung adenocarcinoma, adherent)” was tested, and the AUC [1] was 0.99, the IC50 [1] was over 5.12 µM and the AUC [2] was 0.99. For the same cell line, the IC50 [2] was over 16 µM, the AUC [3] was 0.659 and the IC50 [3] was 0.168 µM. For the same cell line, the AUC [4] was 0.99, the IC50 [4] was over 10.2 µM and the AUC [5] was 0.98. The IC50 [5] was over 5 µM, the AUC [6] was 0.841 and the IC50 [6] was 5.96 µM. For the same cell line, the AUC [7] was 0.956, the IC50 [7] was over 20 µM and the AUC [8] was 0.881. It also gave an IC50 [8] of 8.91 µM, an AUC [9, 11] of 0.297 and an IC50 [9, 11] of 0.895 µM. It also gave an AUC [9, 12] of 0.417, an IC50 [9, 12] of 2.43 µM and an AUC [10] of 0.859. For the same cell line, the IC50 [10] was 0.14 µM.
“NCI-H1876 (small cell lung carcinoma, adherent)” was tested, and the AUC [1] was 0.983, the IC50 [1] was over 5.12 µM and the AUC [2] was 0.976. The IC50 [2] was over 16 µM, the AUC [3] was 0.823 and the IC50 [3] was 0.612 µM. For the same cell line, the AUC [4] was 0.951, the IC50 [4] was over 10.2 µM and the AUC [5] was 0.986. For the same cell line, the IC50 [5] was over 5 µM, the AUC [6] was 0.881 and the IC50 [6] was over 10 µM. For the same cell line, the AUC [7] was 0.967, the IC50 [7] was over 20 µM and the AUC [8] was 0.827. It also gave an IC50 [8] of 6.33 µM, an AUC [9, 11] of 0.58 and an IC50 [9, 11] of 5.18 µM. It also gave an AUC [9, 12] of 0.622, an IC50 [9, 12] of 8.72 µM and an AUC [10] of 0.946. The IC50 [10] was over 0.2 µM.
With “NCI-H1944 (lung adenocarcinoma, adherent)” the AUC [1] was 0.949, the IC50 [1] was over 5.12 µM and the AUC [2] was 0.979. For the same cell line, the IC50 [2] was over 16 µM, the AUC [3] was 0.227 and the IC50 [3] was 0.0096 µM. For the same cell line, the AUC [4] was 0.948, the IC50 [4] was over 10.2 µM and the AUC [5] was 0.963. It also gave an IC50 [5] of over 5 µM, an AUC [6] of 0.849 and an IC50 [6] of 8.29 µM. For the same cell line, the AUC [7] was 0.86, the IC50 [7] was 18.6 µM and the AUC [8] was 0.853. For the same cell line, the IC50 [8] was 8.86 µM, the AUC [9, 11] was 0.469 and the IC50 [9, 11] was 2.56 µM. The AUC [9, 12] was 0.139, the IC50 [9, 12] was 0.265 µM and the AUC [10] was 0.439. The IC50 [10] was 0.00843 µM.
In the case of “NCI-H1993 (lung adenocarcinoma, adherent)”, the AUC [1] is reported as 0.982, the IC50 [1] is reported as over 5.12 µM and the AUC [2] is reported as 0.983. The IC50 [2] was over 16 µM, the AUC [3] was 0.547 and the IC50 [3] was 0.0893 µM. For the same cell line, the AUC [4] was 0.983, the IC50 [4] was over 10.2 µM and the AUC [5] was 0.951. For the same cell line, the IC50 [5] was over 5 µM, the AUC [6] was 0.902 and the IC50 [6] was over 10 µM. It also gave an AUC [7] of 0.976, an IC50 [7] of over 20 µM and an AUC [8] of 0.963. The IC50 [8] was over 10.2 µM, the AUC [9, 11] was 0.916 and the IC50 [9, 11] was over 50 µM. For the same cell line, the AUC [9, 12] was 0.916, the IC50 [9, 12] was over 64 µM and the AUC [10] was 0.983. The IC50 [10] was over 0.2 µM.
Work on “NCI-H2087 (lung adenocarcinoma, semi-adherent)” yielded an AUC [1] of 0.984, an IC50 [1] of over 5.12 µM and an AUC [2] of 0.986. It also gave an IC50 [2] of over 16 µM, an AUC [3] of 0.514 and an IC50 [3] of 0.0699 µM. The AUC [4] was 0.902, the IC50 [4] was over 10.2 µM and the AUC [5] was 0.984. For the same cell line, the IC50 [5] was over 5 µM, the AUC [6] was 0.944 and the IC50 [6] was over 10 µM. The AUC [7] was 0.877, the IC50 [7] was over 20 µM and the AUC [8] was 0.869. The IC50 [8] was over 10.2 µM, the AUC [9, 11] was 0.7 and the IC50 [9, 11] was 12 µM. The AUC [9, 12] was 0.446, the IC50 [9, 12] was 2.81 µM and the AUC [10] was 0.941. It also gave an IC50 [10] of over 0.2 µM.
